# Laboratory results as given in paper PMC12820563, “FoxP3 forms a head-to-head dimer in vivo and stabilizes its multimerization on adjacent microsatellites”.
# Some of the results follow.
# Biological target: T1, MBP-FoxP1dN (Mus musculus, UniProt P58462 326-579)
# T1 sequence: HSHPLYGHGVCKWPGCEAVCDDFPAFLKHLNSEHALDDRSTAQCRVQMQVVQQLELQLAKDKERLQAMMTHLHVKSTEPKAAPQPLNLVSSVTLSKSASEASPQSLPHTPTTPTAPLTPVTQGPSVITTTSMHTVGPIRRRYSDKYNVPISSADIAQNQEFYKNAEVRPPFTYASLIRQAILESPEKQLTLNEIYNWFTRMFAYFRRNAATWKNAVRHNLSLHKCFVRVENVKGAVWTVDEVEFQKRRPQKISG
# Experiment: PD-seq (MBP pull-down with sequencing); 20 mM Tris-HCl pH 7.5, 100 mM NaCl, 1.5 mM MgCl2, 0.4 uM protein, 0.1 uM dsDNA library, 30 min, room temperature, amylose pull-down; high values mean tight binding
# Settings: protein: recombinant; tags: His6-MBP; chain copies: 2; dsDNA, one strand shown
# Outline: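 His6-MBP-tagged mouse FoxP3 or FoxP1 fragment lacking the N-terminus, expressed in E. coli, was mixed at 0.4 µM with 0.1 µM Klenow-filled double-stranded degenerate DNA library. Incubation was 30 min at room temperature in Tris pH 7.5 buffer with NaCl and MgCl2. Complexes were caught on amylose resin and washed three times; DNA was released with proteinase K, PCR-barcoded and Illumina-sequenced. Binding is reads-per-million enrichment, pull-down over input, with replicates pooled.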
row,Sequence,binding signal
1,GATGATTGTTCTCCCAGCTGATGAATTGGATCAATCGAGTAAACAAATTTTCCTAATCTTTCTGTTCAAGCGCCATCTAC,0.959 RPM ratio (pull-down/input)
2,GATGATTGTTCTCCCAGCTGATGAATTTACTATTTCGAGTAAACAAATTTTCCTAATCTTTCTGTTCAAGCGCCATCTAC,1.55 RPM ratio (pull-down/input)
3,GATGATTGTTCTCCCAGCTGATGAATTTAAGTATTCGAGTAAACAAATTTTCCTAATCTTTCTGTTCAAGCGCCATCTAC,0.979 RPM ratio (pull-down/input)
4,GATGATTGTTCTCCCAGCTGATGAATTCAGTTCTTCGAGTAAACAAATTTTCCTAATCTTTCTGTTCAAGCGCCATCTAC,0.862 RPM ratio (pull-down/input)
5,GATGATTGTTCTCCCAGCTGATGAATTGGTTCATTCGAGTAAACAAATTTTCCTAATCTTTCTGTTCAAGCGCCATCTAC,0.949 RPM ratio (pull-down/input)
6,GATGATTGTTCTCCCAGCTGATGAATTAAAAATTTCGAGTAAACAAATTTTCCTAATCTTTCTGTTCAAGCGCCATCTAC,1.04 RPM ratio (pull-down/input)
7,GATGATTGTTCTCCCAGCTGATGAATTCGAGTTATCGAGTAAACAAATTTTCCTAATCTTTCTGTTCAAGCGCCATCTAC,0.96 RPM ratio (pull-down/input)
8,GATGATTGTTCTCCCAGCTGATGAATTCTCAATCTCGAGTAAACAAATTTTCCTAATCTTTCTGTTCAAGCGCCATCTAC,0.717 RPM ratio (pull-down/input)
9,GATGATTGTTCTCCCAGCTGATGAATTTCCTGTATCGAGTAAACAAATTTTCCTAATCTTTCTGTTCAAGCGCCATCTAC,0.941 RPM ratio (pull-down/input)
10,GATGATTGTTCTCCCAGCTGATGAATTAGCGGCTTCGAGTAAACAAATTTTCCTAATCTTTCTGTTCAAGCGCCATCTAC,0.855 RPM ratio (pull-down/input)
11,GATGATTGTTCTCCCAGCTGATGAATTTGCTGCCTCGAGTAAACAAATTTTCCTAATCTTTCTGTTCAAGCGCCATCTAC,0.908 RPM ratio (pull-down/input)
12,GATGATTGTTCTCCCAGCTGATGAATTGCGCCGTTCGAGTAAACAAATTTTCCTAATCTTTCTGTTCAAGCGCCATCTAC,1.08 RPM ratio (pull-down/input)
13,GATGATTGTTCTCCCAGCTGATGAATTCACTGCATCGAGTAAACAAATTTTCCTAATCTTTCTGTTCAAGCGCCATCTAC,1.12 RPM ratio (pull-down/input)
14,GATGATTGTTCTCCCAGCTGATGAATTGCATTACTCGAGTAAACAAATTTTCCTAATCTTTCTGTTCAAGCGCCATCTAC,1.26 RPM ratio (pull-down/input)
15,GATGATTGTTCTCCCAGCTGATGAATTTAACCCTTCGAGTAAACAAATTTTCCTAATCTTTCTGTTCAAGCGCCATCTAC,0.882 RPM ratio (pull-down/input)
16,GATGATTGTTCTCCCAGCTGATGAATTGTAGAAATCGAGTAAACAAATTTTCCTAATCTTTCTGTTCAAGCGCCATCTAC,1.09 RPM ratio (pull-down/input)
17,GATGATTGTTCTCCCAGCTGATGAATTACTGCGCTCGAGTAAACAAATTTTCCTAATCTTTCTGTTCAAGCGCCATCTAC,0.898 RPM ratio (pull-down/input)
18,GATGATTGTTCTCCCAGCTGATGAATTTGCACACTCGAGTAAACAAATTTTCCTAATCTTTCTGTTCAAGCGCCATCTAC,0.974 RPM ratio (pull-down/input)
19,GATGATTGTTCTCCCAGCTGATGAATTGTTATTATCGAGTAAACAAATTTTCCTAATCTTTCTGTTCAAGCGCCATCTAC,3.14 RPM ratio (pull-down/input)
20,GATGATTGTTCTCCCAGCTGATGAATTGTAGACCTCGAGTAAACAAATTTTCCTAATCTTTCTGTTCAAGCGCCATCTAC,0.829 RPM ratio (pull-down/input)
21,GATGATTGTTCTCCCAGCTGATGAATTACATGGATCGAGTAAACAAATTTTCCTAATCTTTCTGTTCAAGCGCCATCTAC,1 RPM ratio (pull-down/input)

row,Sequence,binding signal
1,GATGATTGTTCTCCCAGCTGATGAATTATATCCTTCGAGTAAACAAATTTTCCTAATCTTTCTGTTCAAGCGCCATCTAC,0.96 RPM ratio (pull-down/input)
2,GATGATTGTTCTCCCAGCTGATGAATTCATAAGGTCGAGTAAACAAATTTTCCTAATCTTTCTGTTCAAGCGCCATCTAC,0.78 RPM ratio (pull-down/input)
3,GATGATTGTTCTCCCAGCTGATGAATTTTTCCCCTCGAGTAAACAAATTTTCCTAATCTTTCTGTTCAAGCGCCATCTAC,0.9 RPM ratio (pull-down/input)
4,GATGATTGTTCTCCCAGCTGATGAATTACTCTAGTCGAGTAAACAAATTTTCCTAATCTTTCTGTTCAAGCGCCATCTAC,1 RPM ratio (pull-down/input)
5,GATGATTGTTCTCCCAGCTGATGAATTATTTTACTCGAGTAAACAAATTTTCCTAATCTTTCTGTTCAAGCGCCATCTAC,1.2 RPM ratio (pull-down/input)
6,GATGATTGTTCTCCCAGCTGATGAATTTCACGTCTCGAGTAAACAAATTTTCCTAATCTTTCTGTTCAAGCGCCATCTAC,0.828 RPM ratio (pull-down/input)
7,GATGATTGTTCTCCCAGCTGATGAATTAGAATCTTCGAGTAAACAAATTTTCCTAATCTTTCTGTTCAAGCGCCATCTAC,0.886 RPM ratio (pull-down/input)
8,GATGATTGTTCTCCCAGCTGATGAATTGCTTTTGTCGAGTAAACAAATTTTCCTAATCTTTCTGTTCAAGCGCCATCTAC,1.27 RPM ratio (pull-down/input)
9,GATGATTGTTCTCCCAGCTGATGAATTACGACCATCGAGTAAACAAATTTTCCTAATCTTTCTGTTCAAGCGCCATCTAC,1.04 RPM ratio (pull-down/input)
10,GATGATTGTTCTCCCAGCTGATGAATTCATCCTGTCGAGTAAACAAATTTTCCTAATCTTTCTGTTCAAGCGCCATCTAC,0.829 RPM ratio (pull-down/input)
11,GATGATTGTTCTCCCAGCTGATGAATTCTTAACGTCGAGTAAACAAATTTTCCTAATCTTTCTGTTCAAGCGCCATCTAC,0.997 RPM ratio (pull-down/input)
12,GATGATTGTTCTCCCAGCTGATGAATTGTGTGGATCGAGTAAACAAATTTTCCTAATCTTTCTGTTCAAGCGCCATCTAC,1.08 RPM ratio (pull-down/input)
13,GATGATTGTTCTCCCAGCTGATGAATTCATTCTATCGAGTAAACAAATTTTCCTAATCTTTCTGTTCAAGCGCCATCTAC,0.85 RPM ratio (pull-down/input)
14,GATGATTGTTCTCCCAGCTGATGAATTTAAAGATTCGAGTAAACAAATTTTCCTAATCTTTCTGTTCAAGCGCCATCTAC,0.872 RPM ratio (pull-down/input)
15,GATGATTGTTCTCCCAGCTGATGAATTTTTGTTATCGAGTAAACAAATTTTCCTAATCTTTCTGTTCAAGCGCCATCTAC,2.35 RPM ratio (pull-down/input)
16,GATGATTGTTCTCCCAGCTGATGAATTACTAAGTTCGAGTAAACAAATTTTCCTAATCTTTCTGTTCAAGCGCCATCTAC,1.13 RPM ratio (pull-down/input)
17,GATGATTGTTCTCCCAGCTGATGAATTACCAGGCTCGAGTAAACAAATTTTCCTAATCTTTCTGTTCAAGCGCCATCTAC,0.839 RPM ratio (pull-down/input)
18,GATGATTGTTCTCCCAGCTGATGAATTATCGGCTTCGAGTAAACAAATTTTCCTAATCTTTCTGTTCAAGCGCCATCTAC,0.859 RPM ratio (pull-down/input)
19,GATGATTGTTCTCCCAGCTGATGAATTGCCTTGCTCGAGTAAACAAATTTTCCTAATCTTTCTGTTCAAGCGCCATCTAC,0.856 RPM ratio (pull-down/input)
20,GATGATTGTTCTCCCAGCTGATGAATTCTAACTCTCGAGTAAACAAATTTTCCTAATCTTTCTGTTCAAGCGCCATCTAC,0.838 RPM ratio (pull-down/input)
21,GATGATTGTTCTCCCAGCTGATGAATTGGACGAATCGAGTAAACAAATTTTCCTAATCTTTCTGTTCAAGCGCCATCTAC,0.886 RPM ratio (pull-down/input)

row,Sequence,binding signal
1,GATGATTGTTCTCCCAGCTGATGAATTGAGCAATTCGAGTAAACAAATTTTCCTAATCTTTCTGTTCAAGCGCCATCTAC,0.947 RPM ratio (pull-down/input)
2,GATGATTGTTCTCCCAGCTGATGAATTAAAGATATCGAGTAAACAAATTTTCCTAATCTTTCTGTTCAAGCGCCATCTAC,1.01 RPM ratio (pull-down/input)
3,GATGATTGTTCTCCCAGCTGATGAATTTGTGTTGTCGAGTAAACAAATTTTCCTAATCTTTCTGTTCAAGCGCCATCTAC,2.64 RPM ratio (pull-down/input)
4,GATGATTGTTCTCCCAGCTGATGAATTACGATATTCGAGTAAACAAATTTTCCTAATCTTTCTGTTCAAGCGCCATCTAC,1.07 RPM ratio (pull-down/input)
5,GATGATTGTTCTCCCAGCTGATGAATTCTCAGACTCGAGTAAACAAATTTTCCTAATCTTTCTGTTCAAGCGCCATCTAC,0.778 RPM ratio (pull-down/input)
6,GATGATTGTTCTCCCAGCTGATGAATTAAATCACTCGAGTAAACAAATTTTCCTAATCTTTCTGTTCAAGCGCCATCTAC,1.09 RPM ratio (pull-down/input)
7,GATGATTGTTCTCCCAGCTGATGAATTAGAGAGGTCGAGTAAACAAATTTTCCTAATCTTTCTGTTCAAGCGCCATCTAC,0.771 RPM ratio (pull-down/input)
8,GATGATTGTTCTCCCAGCTGATGAATTCCTAGGCTCGAGTAAACAAATTTTCCTAATCTTTCTGTTCAAGCGCCATCTAC,0.749 RPM ratio (pull-down/input)
9,GATGATTGTTCTCCCAGCTGATGAATTAGGCGATTCGAGTAAACAAATTTTCCTAATCTTTCTGTTCAAGCGCCATCTAC,0.863 RPM ratio (pull-down/input)
10,GATGATTGTTCTCCCAGCTGATGAATTGTGAACCTCGAGTAAACAAATTTTCCTAATCTTTCTGTTCAAGCGCCATCTAC,0.997 RPM ratio (pull-down/input)
11,GATGATTGTTCTCCCAGCTGATGAATTGCAGAAATCGAGTAAACAAATTTTCCTAATCTTTCTGTTCAAGCGCCATCTAC,1.4 RPM ratio (pull-down/input)
12,GATGATTGTTCTCCCAGCTGATGAATTCTTGTGGTCGAGTAAACAAATTTTCCTAATCTTTCTGTTCAAGCGCCATCTAC,1.07 RPM ratio (pull-down/input)
13,GATGATTGTTCTCCCAGCTGATGAATTCTGCATCTCGAGTAAACAAATTTTCCTAATCTTTCTGTTCAAGCGCCATCTAC,1.4 RPM ratio (pull-down/input)
14,GATGATTGTTCTCCCAGCTGATGAATTGATATGCTCGAGTAAACAAATTTTCCTAATCTTTCTGTTCAAGCGCCATCTAC,1.04 RPM ratio (pull-down/input)
15,GATGATTGTTCTCCCAGCTGATGAATTGGTGTCATCGAGTAAACAAATTTTCCTAATCTTTCTGTTCAAGCGCCATCTAC,1.24 RPM ratio (pull-down/input)
16,GATGATTGTTCTCCCAGCTGATGAATTCGCTCATTCGAGTAAACAAATTTTCCTAATCTTTCTGTTCAAGCGCCATCTAC,0.931 RPM ratio (pull-down/input)
17,GATGATTGTTCTCCCAGCTGATGAATTTGCCAGATCGAGTAAACAAATTTTCCTAATCTTTCTGTTCAAGCGCCATCTAC,0.84 RPM ratio (pull-down/input)
18,GATGATTGTTCTCCCAGCTGATGAATTTACGACTTCGAGTAAACAAATTTTCCTAATCTTTCTGTTCAAGCGCCATCTAC,1.3 RPM ratio (pull-down/input)
19,GATGATTGTTCTCCCAGCTGATGAATTGGCGAAATCGAGTAAACAAATTTTCCTAATCTTTCTGTTCAAGCGCCATCTAC,0.992 RPM ratio (pull-down/input)
20,GATGATTGTTCTCCCAGCTGATGAATTCTGCTCATCGAGTAAACAAATTTTCCTAATCTTTCTGTTCAAGCGCCATCTAC,0.862 RPM ratio (pull-down/input)
21,GATGATTGTTCTCCCAGCTGATGAATTTCTGCGCTCGAGTAAACAAATTTTCCTAATCTTTCTGTTCAAGCGCCATCTAC,0.816 RPM ratio (pull-down/input)
